In PubChem BioAssay (NCATS):
The shares of active, inactive and inconclusive entries below differ from those in the screen. For some assays here: A potency beside an inconclusive call is a rough fit, not a confirmed value. Calls of active or inactive are those of the source. Unless noted, calls come from the whole dose curve; as a rule, active = well fitted curve in the direction sought with a large enough effect; inconclusive = small, poorly fitted or top-dose-only effect, or another doubt; inactive = no such curve, though single readings can be large; an effect the other way counts as inactive or inconclusive.

Columns and labels:
[1] = P-glycoprotein substrates identified in KB-8-5-11 adenocarcinoma cell line, qHTS therapeutic library screen (AID 1346987); note: nearly all actives have a fitted effect of over 65% in size; note: potency is the fitted concentration of half-maximal effect
Procedure, shortened: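 Human cervical adenocarcinoma KB-8-5-11 cells, selected in colchicine to over-express P-gp and assayed without it, were exposed for 72 h to titrated compounds. An ATP-based luminescent viability signal gave AC50.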

[2] = system: Zika virus NS2B-NS3 protease (unlinked complex); assay: Primary screen GU Rhodamine qHTS for Zika virus inhibitors: Unlinked NS2B-NS3 protease assay (AID 1347159); note: nearly all actives have a fitted effect of over 60% in size; note: potency is the fitted concentration of half-maximal effect; for activity change, negative = inhibition: % is set by controls: 0 for no effect and ±100 for the full control effect
Procedure, shortened: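 Enzyme 25 nM in Tris-HCl pH 8.0 + 0.01% Tween 20; compounds up to 114 microM, 15 min RT dark; + Rhod110 substrate 1.5 microM; read t0 and 15 min; delta fluorescence → % inhibition → 4-parameter Hill fit.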

[3] = system: HEK293; assay: Cytotoxic Profiling of Annotated Libraries Using Quantitative High-Throughput Screening (AID 1296008); conditions: Five cell lines viability, CellTiter-Glo ATP luminescence, 48-72 h; max response: stronger effect = lower value; note: nearly all actives have a fitted effect of over 60% in size; note: potency is the fitted concentration of half-maximal effect; for max response: % is set by controls: 0 for no effect and ±100 for the full control effect
Procedure, shortened: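 Cells exposed to compounds for 48 or 72 hr at 37 degrees Celsius. Viability read as ATP-coupled luminescence with CellTiter-Glo after 10 min at room temperature.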

[4] = system: Es-2; assay: Primary qHTS to identify gynecologic anti-cancer compounds using libraries of approved drugs and bioactive compounds (AID 1345084); conditions: Gynecologic cancer cell panel viability, ATPlite luminescence, 48 h; series mostly up to 57.5 µM; note: nearly all actives have a fitted effect of over 55% in size; note: potency is the fitted concentration of half-maximal effect; for activity change, negative = cytotoxicity: % is set by controls: 0 for no effect and ±100 for the full control effect
Procedure, shortened: (§1)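 Measured: luminescence after ATPlite addition (15 min, RT). Exposure: 48 h, 37 C, 5% CO2.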

[5] = system: PA-1; assay: as above; conditions: Gynecologic cancer cell panel viability, ATPlite luminescence, 48 h; series mostly up to 57.5 µM
Procedure, shortened: as §1

[6] = system: SKOV3; assay: as above; conditions: Gynecologic cancer cell panel viability, ATPlite luminescence, 48 h; series mostly up to 57.5 µM
Procedure, shortened: as §1

[7] = system: Tov-21-G; assay: as above; conditions: Gynecologic cancer cell panel viability, ATPlite luminescence, 48 h; activity change, negative = cytotoxicity: at 57.5 µM (top of the series) unless noted
Procedure, shortened: as §1

[8] = system: Tov112D; assay: as above; conditions: Gynecologic cancer cell panel viability, ATPlite luminescence, 48 h; series mostly up to 57.5 µM
Procedure, shortened: as §1

[9] = target: Cytochrome P450 2D6 (Homo sapiens) (UniProt P10635); assay: Cytochrome P450 family 2 subfamily D member 6 (CYP2D6) small molecule antagonists: luciferase biochemical (cell-free) qHTS assay (AID 1645840; active = well fitted curve in the direction sought with a large enough effect in the repeat runs; inconclusive = weak or mixed curves; inactive = no such curve, though single readings can be large; an effect the other way counts as inactive or inconclusive; note: potency is the fitted concentration of half-maximal effect; nearly all actives have a fitted effect of over 55% in size)
Sequence of UniProt P10635 (P10635 whole entry, looked up): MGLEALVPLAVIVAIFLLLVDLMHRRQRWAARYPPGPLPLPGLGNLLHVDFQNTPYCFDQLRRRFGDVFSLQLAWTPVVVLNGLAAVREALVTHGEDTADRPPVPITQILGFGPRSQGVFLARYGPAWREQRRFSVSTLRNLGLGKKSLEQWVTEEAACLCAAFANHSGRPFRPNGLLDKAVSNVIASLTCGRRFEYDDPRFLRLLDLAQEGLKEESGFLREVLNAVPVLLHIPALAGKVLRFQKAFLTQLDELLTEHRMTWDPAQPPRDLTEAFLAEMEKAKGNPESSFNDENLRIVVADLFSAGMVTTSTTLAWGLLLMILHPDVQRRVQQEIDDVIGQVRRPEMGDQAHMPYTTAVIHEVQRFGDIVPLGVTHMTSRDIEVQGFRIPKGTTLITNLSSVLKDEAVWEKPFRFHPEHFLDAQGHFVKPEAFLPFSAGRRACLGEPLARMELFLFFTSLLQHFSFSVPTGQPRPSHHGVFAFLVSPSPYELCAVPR
Procedure, shortened: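 P450-Glo CYP2D6 system: proluciferin substrate converted by enzyme to luciferin, read by luminescence proportional to activity. Enzyme-substrate mix with compound 10 min at room temperature, then NADPH regeneration 1 h before detection reagent.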

[10] = Primary qHTS for inhibitors of nuclear receptor binding SET domain protein 2 (NSD2) in an isogenic RCH-ACV NSD2 p.E1099K mutant (9B) (AID 1645876); note: nearly all actives have a fitted effect of over 70% in size; note: potency is the fitted concentration of half-maximal effect
[11] = Primary redox qHTS assay for identification of artifact compounds. (AID 1845223); conditions: Amplex Red/HRP redox cycling with DTT, fluorescence; redox activity (% of DA3003): at 53.8 µM (top of the series);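 note: 0% = DMSO and 100% = reference compound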
Procedure, shortened: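 Redox-cycling detection via DTT (250 uM final) oxidation coupled to Amplex Red (25 uM)/HRP (250 mU/mL) in HBSS. 15 min preincubation plus 30 min after DTT, room temperature. Ex/Em 525/598 nm; 4-parameter Hill fit against DMSO and 10 uM DA3003.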

[12] = system: HeLa; assay: Primary qHTS to identify gynecologic anti-cancer compounds using libraries of approved drugs and bioactive compounds (AID 1345084); conditions: Gynecologic cancer cell panel viability, ATPlite luminescence, 48 h; activity change, negative = cytotoxicity: at 57.5 µM (top of the series); note: nearly all actives have a fitted effect of over 55% in size; note: potency is the fitted concentration of half-maximal effect; for activity change, negative = cytotoxicity: % is set by controls: 0 for no effect and ±100 for the full control effect
Procedure, shortened: as §1

[13] = Primary qHTS for inhibitors of nuclear receptor binding SET domain protein 2 (NSD2) in an RCH-ACV wild type WT cells (2C) (AID 1645877); conditions: activity change, negative = cell killing: at 44.9 µM (top of the series) unless noted; note: potency is the fitted concentration of half-maximal effect; nearly all actives have a fitted effect of over 70% in size
[14] = target: Cytochrome P450 3A4 (Homo sapiens) (UniProt P08684); assay: Cytochrome P450 family 3 subfamily A member 4 (CYP3A4) small molecule antagonists: luciferase qHTS assay (AID 1645841; active = well fitted curve in the direction sought with a large enough effect in the repeat runs; inconclusive = weak or mixed curves; inactive = no such curve, though single readings can be large; an effect the other way counts as inactive or inconclusive; note: potency is the fitted concentration of half-maximal effect; nearly all actives have a fitted effect of over 45% in size)
Sequence of UniProt P08684 (P08684 whole entry, looked up): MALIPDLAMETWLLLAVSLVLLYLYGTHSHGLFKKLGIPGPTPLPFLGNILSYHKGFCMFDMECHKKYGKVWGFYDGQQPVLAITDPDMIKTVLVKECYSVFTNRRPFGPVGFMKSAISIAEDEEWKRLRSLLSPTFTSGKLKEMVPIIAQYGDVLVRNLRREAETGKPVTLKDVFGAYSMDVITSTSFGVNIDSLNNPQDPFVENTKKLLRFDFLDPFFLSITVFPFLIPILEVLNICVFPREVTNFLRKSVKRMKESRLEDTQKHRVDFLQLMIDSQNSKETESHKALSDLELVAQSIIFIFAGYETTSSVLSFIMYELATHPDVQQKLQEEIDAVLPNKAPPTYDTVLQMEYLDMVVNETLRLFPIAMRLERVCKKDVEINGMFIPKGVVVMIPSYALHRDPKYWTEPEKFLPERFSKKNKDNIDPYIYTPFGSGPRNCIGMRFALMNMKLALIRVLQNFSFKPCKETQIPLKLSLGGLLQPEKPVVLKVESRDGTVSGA
Procedure, shortened: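 P450-Glo CYP3A4 enzyme with proluciferin substrate preincubated 10 min with compound at room temperature, then NADPH regeneration 1 h. Luciferin detection reagent added for 20 min; luminescence recorded. Ketoconazole positive control.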

[15] = system: JEG-3; assay: Primary qHTS to identify gynecologic anti-cancer compounds using libraries of approved drugs and bioactive compounds (AID 1345084); conditions: Gynecologic cancer cell panel viability, ATPlite luminescence, 48 h; series mostly up to 57.5 µM; note: nearly all actives have a fitted effect of over 55% in size; note: potency is the fitted concentration of half-maximal effect
Procedure, shortened: as §1

[16] = system: Hek293T; assay: as above; conditions: Gynecologic cancer cell panel viability, ATPlite luminescence, 48 h, control line for the selectivity index; activity change, negative = cytotoxicity: at 57.5 µM (top of the series) unless noted
Procedure, shortened: as §1

[17] = target: Phospholipid hydroperoxide glutathione peroxidase GPX4 (Homo sapiens) (UniProt P36969); assay: Primary qHTS Assay for Inhibitors of Recombinant Selenoprotein Glutathione Peroxidase 4 (GPX4) (AID 1845192); note: % is set by controls: 0 for no effect and ±100 for the full control effect; nearly all actives have a fitted effect of over 65% in size
Sequence of UniProt P36969 (P36969 whole entry, looked up): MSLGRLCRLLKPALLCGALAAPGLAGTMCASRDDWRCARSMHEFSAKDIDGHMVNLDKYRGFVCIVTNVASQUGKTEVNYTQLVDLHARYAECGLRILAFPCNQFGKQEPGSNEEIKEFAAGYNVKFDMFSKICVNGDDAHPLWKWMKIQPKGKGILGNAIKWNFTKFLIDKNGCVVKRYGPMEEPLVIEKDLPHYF
Procedure, shortened: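 Steps: GPX4 plus compound, 30 min RT; add GR/GSH/NADPH master mix; start with cumene hydroperoxide; read 340/450 nm fluorescence at 0 and 15 min. Finals were 200 nM GPX4, 1 mM GSH, 0.5 mM CHP, 0.5 mM NADPH, 100 nM GR.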
Tags give direction and shape of the fitted curve.

For `C[C@@H]1O[C@@H](O[C@H]2[C@H](OC(=O)[C@]34CCC(C)(C)C[C@H]3C3=CCC5[C@@]6(C)CC[C@H](O[C@@H]7O[C@H](C(=O)O)[C@@H](O)[C@H](O)[C@H]7O[C@@H]7O[C@H](CO)[C@H](O)[C@H](O)[C@H]7O)[C@@](C)(C=O)C6CC[C@@]5(C)[C@]3(C)C[C@H]4O)O[C@H](C)[C@H](O[C@@H]3O[C@H](C)[C@H](O)[C@H](O)[C@H]3O)[C@@H]2O)[C@H](O)[C@H](O)[C@H]1O[C@@H]1OC[C@@H](O)[C@H](O[C@@H]2O[C@H](CO)[C@@H](O)[C@H](O)[C@H]2O)[C@H]1O` (stereo partly specified), the outcome [1] was “inactive [at 5.11 µM]”, the activity change, negative = inhibition [2] was inactive: 4.39% [at 19.1 µM] and the max response [3] was inactive: -75.9%. The activity change, negative = cytotoxicity [4] was inactive: 0.809% [at 6.55 µM], the Potency [5] was inconclusive: 1.12 µM and the Potency [6] was inconclusive: 35.5 µM. For the same compound, the Potency [7] was inconclusive: 3.98 µM and the Potency [8] was inconclusive: 2.51 µM.
In the case of `CNC(C)C(=O)NC(C(=O)N1CCCC1C(=O)Nc1snnc1-c1ccccc1)C1CCCCC1` (stereo unspecified), the Potency [9] is reported as inconclusive: 19 µM [inhibitor, partial curve, poor fit], the Potency [10] is reported as “inactive” and the Potency [11] is reported as “inactive”. For the same compound, the Potency [3] was inconclusive: 29.1 µM [inhibitor, single point], the Potency [12] was “inactive” and the Potency [6] was inconclusive: 39.8 µM [cytotoxic, partial curve, poor fit]. The Potency [7] was inconclusive: 1.12 µM [cytotoxic, full curve, poor fit].
For `CC(=O)O[C@@H]1[C@@H](O)[C@H](O[C@@H]2[C@@H](O)[C@@H](O)[C@H](O[C@H]3[C@H](O[C@H]4[C@H](O[C@H]5CC[C@@]6(C)C(CC[C@]7(C)C6CC=C6[C@@H]8CC(C)(C)CC[C@]8(C(=O)O)CC[C@]67C)[C@]5(C)CO)O[C@H](CO)[C@@H](O)[C@@H]4O)OC[C@@H](O)[C@@H]3O)O[C@H]2C)OC[C@H]1O` (stereo partly specified), the Potency [10] was inconclusive: 4.88 µM [inhibitor, single point], the Potency [13] was inconclusive: 7.74 µM [inhibitor, single point] and the Potency [3] was inconclusive: 6.93 µM [inhibitor, single point]. The activity change, negative = cytotoxicity [4] was inactive: -1.31% [at 11.6 µM].
With `CCCNCCc1ccc(NS(=O)(=O)c2ccc(OC(F)(F)F)cc2)cc1` the Potency [14] was inconclusive: 1.2 µM [falling, single point], the Potency [10] was inconclusive: 20.5 µM [inhibitor, single point] and the Potency [3] was inconclusive: 29.1 µM [inhibitor, single point]. For the same compound, the Potency [4] was “inactive” and the Potency [5] was “inactive”.
In the case of `CC(O)C(=O)/C=C/C=C/C(=O)OC1C=C2COC(=O)C2(O)C2(C)CCCC(C)(C)C12` (stereo unspecified), the Potency [2] is reported as inconclusive: 8.91 µM [inhibitor, full curve], the Potency [10] is reported as inconclusive: 14.2 µM [inhibitor, single point] and the Potency [13] is reported as inconclusive: 14.2 µM [inhibitor, single point]. For the same compound, the max response [3] was inactive: 3.48%, the Potency [12] was “inactive” and the Potency [15] was “inactive”. The Potency [5] was “inactive” and the Potency [6] was “inactive”.
With `CCOC(=O)C1=C(N)Oc2ccc(Cl)cc2C1C(C#N)C(=O)OCC` (stereo unspecified) the Potency [2] was inconclusive: 56.2 µM [inhibitor, partial curve], the max response [3] was inactive: 1.25% and the Potency [12] was “inactive”. For the same compound, the Potency [16] was “inactive”.
With `CC1(C(=O)O)CCCC2(C)C1CCC13CC(CCC21)C1(CO)OC31` (stereo unspecified) the Potency [1] was inconclusive: 0.0805 µM [inhibitor, full curve, poor fit], the Potency [17] was “inactive” and the outcome [3] was “inactive”. The Potency [4] was “inactive” and the Potency [6] was “inactive”.
